# Reference: the supplement of paper PMC11417369
# ± gives the standard deviation of the averaged measurements. The list shows a part of the results.
# Test system: PfAP2-LT AP2 domain (GST-tagged)
# Test: gcPBM binding intensity (ln(normalized median fluorescence intensity)); higher = stronger DNA binding
# Outline: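 The highest Masliner-normalised natural-log median intensity across replicate spots of either probe orientation is reported as binding intensity. GST-tagged P. falciparum DNA-binding domains expressed in E. coli were applied for 1 h to an Agilent 4 × 180k array of primer-extended double-stranded 36-bp intergenic genomic probes plus negative controls, and bound protein was detected with Alexa488 anti-GST antibody and scanned at 488 nm.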
row,Sequence,gcPBM binding intensity (ln)
1,TGAACTCATAGGAAAACACACATATGGGTAATATAT [CACACA_site187],9.09 ± 0.37
2,ATTTTCCTTTTACCACGTACACATAAAAACGTTATA [XGTACX_site3595],8.85 ± 0.41
3,ATCATAAATATAGCAACACACGGATTACATAAAATA [CACACA_site2796],9.04 ± 0.5
4,TTGTAATAAATAAAAGTGCAGATATGGTTCCACTAA [GTGCAC_site9942],8.59 ± 0.48
5,TTAAAAAAATAATTAACACACACATGTATATCTATA [CACACA_site9026],9.03 ± 0.43
6,ACATATTCATATGGAAGTACGATAATGTAGTCATAT [XGTACX_site7080],8.96 ± 0.39
7,ATATATACATACAAATTAATTACGAGGAATATATTA [XGTACX_negctrl_site417],8.79 ± 0.37
8,AATGAACTCACGAGCACACACACACCGATATATATA [CACACA_site4710],10.1 ± 0.35
9,TATATATATTTAAAGGTGCAGATGCCAGTGTATATT,8.85 ± 0.41
10,ATAAATATATTTAAATGTACATAATATATATATATA [XGTACX_site5137],8.76 ± 0.38
11,GTAAAAAAATTAAAAATTAACAAGGAATTAAGTATA [CACACA_negctrl_site1688],8.59 ± 0.56
12,GGAACTTATTTTTATACACACATATGTGCATATTAT [CACACA_site629],9.38 ± 0.47
13,TATACATATATATACACACACACATATATATATATA [CACACA_site1299],9.9 ± 0.42
14,AGGAAACAAGAAATGAAGAATCATGTAGAAGGCCCA [GTGCAC_negctrl_site187],8.82 ± 0.5
15,TATATAACCGAGTGCACACACAAAAAAAAAGTGAAC [CACACA_site6806],9.51 ± 0.45
16,AATAATATAAATATTACACACTAATTGTATTATAGA [CACACA_site6347],8.72 ± 0.4
17,TATTAAATATTGTATACATGCAAATACTAGAAAATT [TGCATGCA_site370],8.76 ± 0.3
18,TAAATTAAAAAAAATACACACACACCGACACATATA [CACACA_site9084],9.84 ± 0.26
19,TTCGTAACTGATTCAACACACAAAAGGGGGAAAATT [CACACA_site1754],9.06 ± 0.11

row,Sequence,gcPBM binding intensity (ln)
1,AAAAAGAAGAATAATACACACAAATTACTTTATATA [CACACA_site6984],8.91 ± 0.48
2,ATATTATAGAAATATACACACATTGTTTTATAGCAT [CACACA_site7177],9.01 ± 0.37
3,AATTACAAATATTCATGTACATATTTATAAATACAT [XGTACX_site5430],8.8 ± 0.35
4,ATATATATATATATGTGTACATATATTAAGATATAT [XGTACX_site1065],9.35 ± 0.057
5,TATGTTATATAATATTGTACACAAAATGGTTTCTAT [XGTACX_site7686],8.75 ± 0.37
6,ATGATGTGCTTTAAAAGTACTTAAGTTATATTCTTT [XGTACX_site7127],8.7 ± 0.39
7,AAAATTAAAATTTTCACACAGATATATTTACAATTT [CACACA_site5692],8.62 ± 0.45
8,ATAACACAAAATTGTTGTACACGTGTTAATAAGTGA [XGTACX_site4452],9.1 ± 0.42
9,ATATATATGAAACACACACACAAAAAAAAAAAAAAA [CACACA_site3647],9.45 ± 0.57
10,TAAAGTTATGCAATAACACACATATACAATACATAT [CACACA_site6698],9.12 ± 0.32
11,AATATTTATATAAATGCATGCTGATACAACAGTCTT [TGCATGCA_site21],8.84 ± 0.34
12,AGGTATGTCTATAAATGTACATATGAGTTCAATTTC [XGTACX_site2244],8.75 ± 0.35
13,CACAGTGATATAAAAACACACATGAATTCTAATTTC [CACACA_site6884],8.96 ± 0.48
14,CATAAAAATATTAATAAACACACAATCAGATATTGA [CACACA_site9032],8.87 ± 0.45
15,AAATATATATAAACAAGTACATATTTAAAAAAAGGA [XGTACX_site2631],8.86 ± 0.42
16,ATAAATATATATTTACGTACATATTATATATATATA [XGTACX_site6172],8.89 ± 0.28
17,AAAAAAATTTCACATTGTACTTTAATAATATACTAC [XGTACX_site7264],8.59 ± 0.42
18,ACATATAAATTGTGTACACATATATATATATTTTTT [CACACA_site5946],8.94 ± 0.36
19,GAATGCATGTAAATATGTACATATATTTAAAAATTT [XGTACX_site6032],8.91 ± 0.43

row,Sequence,gcPBM binding intensity (ln)
1,TGTTAAAAGGTTAAATTAAAATAACCTCCGGAAATT [GTGCAC_negctrl_site236],8.4 ± 0.4
2,TTTATATGTATACAAACATATAAATATAAATGTATT [TGCATGCA_negctrl_site346],8.55 ± 0.34
3,TGTTCTATGATTTGTACACACTTTTTTTTAAAATGC [CACACA_site5558],9.03 ± 0.47
4,TATATATACATATACACACACACACCGATATATATA [CACACA_site8706],9.9 ± 0.29
5,GTTTTGTACATATTCTCACACATATAAAAATACCCA [CACACA_site4446],8.77 ± 0.42
6,TTCATAATAAAAAGGTGTACATATATATATATATAT [XGTACX_site2829],9.74 ± 0.3
7,AAGCATTTAATGTTTTATATAACATGTATTTTTTAT [CACACA_negctrl_site673],8.72 ± 0.39
8,TATCGAGCCATTTTTACATGCAATTATACATAATTT [TGCATGCA_site987],8.88 ± 0.36
9,CATGTATACTATAATACACACTATAAAATATACACC [CACACA_site7121],9.12 ± 0.35
10,TTCAAATAATTTAAATGTACGTTGCTTTATTAAAAG [XGTACX_site3674],8.24 ± 0.36
11,TAAAATGAATATAGGTGTACTTAAAAAAAAGTAAAA [XGTACX_site4613],8.56 ± 0.62
12,TAAATTCTTTATAATCGTACATAAATAGAAAAATAA [XGTACX_site601],8.32 ± 0.44
13,TAAAAGAAATAATATACACACATATATAAAAATAAA [CACACA_site1329],8.94 ± 0.41
14,CTTACTTACTTACTCACACACATATACAAAGAAAAA [CACACA_site3347],9.1 ± 0.35
15,AAATATATGTTATATGTGCACTTTTTTTTTTTTTTT [GTGCAC_site9667],8.76 ± 0.48
16,TTTTACTAAATATATACACACATTATACATATATAT [CACACA_site9081],9.2 ± 0.46
17,ATAAATAATAAAAAATGTACACATATAAATATAAAG [XGTACX_site727],8.98 ± 0.53
18,ATGATGAAAATAGAAATACACACTAAAAAATAAAAT [CACACA_site1136],9.1 ± 0.38
19,AAAACATGTTCAACATGTACACAACAGGATGAATAT [XGTACX_site506],9.21 ± 0.42
